Source: PMC5362816, “Calmodulin is responsible for Ca^2+-dependent regulation of TRPA1 Channels” (Scientific Reports, 2017)

Molecular target: T1, CaM-agarose (Sigma) (UniProt P62157, coupled to agarose)
T1 construct: calmodulin coupled to agarose, bought from Sigma; Commercial reagent; also called calmodulin; source: bought: Sigma (CaM-agarose)
Assay: pull-down; CaM-agarose (Sigma) incubated with HEK293 lysate expressing a V5-His-tagged TRP channel; 20 mM Tris-HCl pH 7.4, 150 mM NaCl, 1% NP-40, 4 °C; 1 mM Ca2+ (Fig. 2A) or 2 mM Ca2+ (Fig. 2B); blot with anti-V5
Conditions: one partner purified

relative binding to CaM (normalized by total input)	Binder
0.3	TRPV1-V5 (natural protein, TRPV1, rat cDNA in pcDNA3-V5-His-TOPO; source: HEK293, transfected, in lysate) not shown
22.5	TRPA1-V5-His (×6) (natural protein, TRPA1, mouse cDNA in pcDNA3-V5-His-TOPO; The vector pcDNA3-V5-His-TOPO is surmised to add the tags at the C-terminus; also called full-length TRPA1; WT TRPA1; source: HEK293, transfected, in lysate) not shown
1.4	TRPV4 (V5-His tagged) (natural protein, TRPV4, rat cDNA in pcDNA3-V5-His-TOPO; source: HEK293, transfected, in lysate) not shown
